Structures are written as SMILES. Values joined by “and” are separate entries in the source; they are usually repeats but may differ in a detail not shown here. Identical values can stand only once. Hit rate of the full screen: of about 48,000 compounds, about 1,200 (2.5%) were called active. About 2% were inconclusive and are not listed.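 The calls were made as follows: active = activation of at least 60% and not above a set upper limit (about 1 call in 100 departs from these limits); inconclusive = activation of 40% to 60%, or above that upper limit; inactive = activation under 40%.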 The list shows a part of the results.

This assay deals with Probable G-protein coupled receptor 32 (Homo sapiens) (UniProt O75388). Kind of assay: qHTS for Agonists of Human Resolvin D1 Receptor DRV1. The following applies: CHO-K1 GPR32 beta-arrestin PathHunter luminescence, 90 min; at 76.9 µM; hits give high values; zero percent set by DMSO-only wells. The method, boiled down: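 Beta-arrestin recruitment read-out: luminescence from complemented beta-Gal in CHO-K1 GPR32 PathHunter cells, measured 1 h after detection reagent at ambient temperature following 90 min compound exposure at 37 °C; DMSO served as basal (EC0) control.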
Sequence of UniProt O75388 (O75388 whole entry, looked up): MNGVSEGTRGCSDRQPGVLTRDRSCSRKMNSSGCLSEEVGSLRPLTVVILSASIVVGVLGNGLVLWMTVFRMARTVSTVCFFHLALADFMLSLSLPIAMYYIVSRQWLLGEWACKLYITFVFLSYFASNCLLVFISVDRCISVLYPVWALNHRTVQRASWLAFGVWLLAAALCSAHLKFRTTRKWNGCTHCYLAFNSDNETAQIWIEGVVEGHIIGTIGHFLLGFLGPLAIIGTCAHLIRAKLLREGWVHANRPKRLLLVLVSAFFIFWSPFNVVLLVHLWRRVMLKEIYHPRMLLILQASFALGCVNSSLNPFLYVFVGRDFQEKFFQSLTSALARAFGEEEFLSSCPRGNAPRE
Background: Quantitative high-throughput screening tests each substance at several concentrations.
Consider `Cc1ccc(-c2nc(S(=O)(=O)c3ccccc3)c(SCC(=O)NC3CCCCC3)o2)cc1`, for which the activation was inactive: -23.7%.

Regarding `CC(C)CC(NC(=O)C1CCCCC1)C(=O)Nc1cccc(C(F)(F)F)c1` (configuration not stated), the activation was inactive: -4.28%.

Take `COc1ccc(CCNC(=O)CCc2cn(Cc3ccc(F)cc3)c3ccccc23)cc1OC`: the activation was inactive: -15.3%. For `Cc1ccc(Cl)cc1NC(=O)c1cc(CN2CCCC2)on1`, the activation is inactive: -9.09%. On to `Cc1ccc(Cl)cc1N1CCN(C(=O)c2nn(C)c3c2CS(=O)(=O)c2ccccc2-3)CC1`, for which the activation is inactive: -1.5%. Consider `CCc1ccc(NC(=O)c2ccc(NS(=O)(=O)c3c(C)noc3C)cc2)cc1`, for which the activation is inactive: 33.8%. Take `Cc1cccc(N2CCN(C(=O)c3cccn3-c3nnc(N4CCCCC4)s3)CC2)c1C`: the activation is inactive: -3.7%.

For `COc1ccc(-c2cc(C(F)(F)F)nc(SCCC(=O)Nc3cccc(OC)c3)n2)cc1`, the activation is inactive: -28.8%. Under `CCc1cccc(C)c1NC(=O)c1cc(S(=O)(=O)N2CCCCCC2)cn1C` stands inactive: 11.8%; under `CCOC(=O)Cn1c(=O)oc2cc(S(=O)(=O)NC(C)c3ccccc3)ccc21` (configuration not stated), inactive: -3.52%; under `COC(=O)c1nc2n(n1)C(c1cc(OC)ccc1OC)C=C(c1ccc(Br)cc1)N2` (configuration not stated), inactive: -2.74%. For `CCc1ccc(CN(C(=O)Nc2cccc(Cl)c2)c2ccccn2)cc1`, the activation was inactive: 14.8%. For `O=C(c1ccccc1F)N1c2nc(-c3ccco3)nn2C2(CCCCC2)[C@@H]2CCCC[C@@H]21` the value was inactive: -48.1%; for `COc1ccc(Cl)cc1NC(=O)c1cnc(N2CCCCC2)c2ccccc12`, inactive: -11.4%; for `Cc1c(Cl)cccc1NS(=O)(=O)c1ccc(NS(=O)(=O)c2ccc3c(c2)OCCO3)cc1`, active: 68.2%. Under `COc1ccccc1CNC(=O)c1ccc(-n2c(C)cc3c2CCCC3)cc1` stands inactive: -9.16%.

As for `CCOC(=O)c1ccccc1NC(=O)N1CC(C)Oc2ccc(C)cc21` (configuration not stated), the activation is inactive: -41.7%. Regarding `CCOc1ccc(NC(=O)C2CCN(S(=O)(=O)c3c(C)noc3/C=C/c3ccco3)CC2)cc1`, the activation was inactive: -34.9%. For `CCCCOC(=O)/C(C#N)=C\c1ccc(-c2ccc(Cl)cc2)o1`, the activation was inactive: -5.28%. For `CCOc1ccc(NC(=O)CCn2cccn2)cc1` the value was inactive: -3.25%; for `O=C1CN(C(=O)COc2ccc(Cl)cc2)C(c2ccc(F)cc2)c2cc(Cl)ccc2N1` (configuration not stated), inactive: -14.1%; for `Cc1ccc(-c2nc3ccccn3c2Nc2ccc3c(c2)OCCO3)o1`, inactive: -3.45%. Under `CCOC(=O)N1CCN(C(=O)c2ccc3c(c2)N(Cc2cccc(Cl)c2)C(=O)c2ccccc2S3=O)CC1` (configuration not stated) stands inactive: -7.35%. For `CC(=O)c1ccc(C(=O)N(Cc2cccnc2)c2nc3c(C)c(C)ccc3s2)cc1` the value was inactive: -21.4%. `COc1cc(NC(=O)C(=O)Nc2ccc3nc4n(c(=O)c3c2)CCCCC4)cc(OC)c1OC`: the activation was inactive: -9.81%. Regarding `O=C(Nc1ccc(Br)cc1)C1CCN(c2ncccn2)CC1`, the activation is inactive: 1.5%. Under `COC(=O)c1ccc(-c2nc(-c3ccc(OC)c(OC)c3)no2)cc1` stands inactive: 1.27%; under `Cc1ccc(-c2nn(C)c(=O)c3ccccc23)cc1S(=O)(=O)NCCCN(C)C`, inactive: -28.9%; under `CC(=O)Nc1ccc(NC(=O)C(c2ccccc2)N2Cc3ccccc3C2=O)cc1` (configuration not stated), inactive: -17.1%. For the compound `CCc1ccc(C(=O)NC2=NC(c3cc(OC)ccc3OC)CC(=O)N2)cc1` (configuration not stated), the activation was inactive: -11.4%.

For the compound `COc1ccc(-c2cc(C(F)(F)F)n3nc(C(=O)Nc4sc5c(c4C(=O)OC(C)C)CCC(C)C5)cc3n2)cc1` (configuration not stated), the activation is inactive: -5.51%. In the case of `CCCN(CCC)C(=O)C1CCCN(S(=O)(=O)c2cc(Br)cc3c2N(C(=O)CC)CC3)C1` (configuration not stated), the activation is inactive: -4%. For `O=C(Nc1ccc(-c2nc3cc(NC(=O)c4ccc(Cl)cc4)ccc3o2)cc1)c1ccc(Cl)cc1` the value was inactive: 15.1%.

Regarding `Cc1cc(C)cc(NC(=O)CCc2c(C)nc3c(c2C)c(=O)n(C)c(=O)n3C)c1`, the activation is inactive: -2.21%. For `O=C(c1ccc2c(c1)N(Cc1ccc(Cl)cc1)C(=O)c1ccccc1S2(=O)=O)N1CCN(Cc2ccccc2)CC1` the value was inactive: -18.6%. For `CCc1ccc(-n2nc(CO)c(C(=O)NCc3cccnc3)n2)cc1` the value was inactive: -2.03%. With `COc1ccc(N2C(=O)CCSC23C(=O)N(Cc2ccc(F)cc2)c2ccccc23)cc1` (configuration not stated), the activation was inactive: -32.2%. For the compound `Cc1ccc(-c2onc(C)c2C)cc1S(=O)(=O)Nc1cccc(Cl)c1C`, the activation is inactive: -8.03%.

With `Cc1nc2ccc(S(=O)(=O)NC(C(=O)N3CCN(c4cccc(Cl)c4)CC3)C(C)C)cc2s1` (configuration not stated), the activation was inactive: -3.98%. For the compound `O=S(=O)(c1ccc(Br)cc1)c1nnn2c1nc(NCCc1ccccc1)c1sccc12`, the activation is inactive: -5.24%. On to `Cc1ccc(CCNC(=O)CCn2nc(-c3ccc(Cl)cc3)ccc2=O)cc1`, for which the activation was inactive: 31.9%. For the compound `Cc1cn2c(=O)c(S(=O)(=O)Nc3ccc(N4CCOCC4)cc3)c(C)nc2s1`, the activation is inactive: -2.49%. On to `Cc1nc(N2CCCC2)ncc1C(=O)NCc1ccc(F)cc1`, for which the activation is inactive: 0.566%.

In the case of `CC1CCN(S(=O)(=O)c2cc(C(=O)NCc3ccccc3)n(C)c2)CC1`, the activation is inactive: 7.27%. On to `COc1cc2ncc3c(-c4ccccc4)nn(CC(=O)NC4CCCCC4)c3c2cc1OC`, for which the activation was inactive: -3.35%.

On to `COCCNC(=O)c1cnn(-c2cccc(C)c2)c1-n1cccc1`, for which the activation is inactive: -10.9%. In the case of `CCOCCCn1c(=N)c(C(=O)NC(C)c2ccccc2)cc2c(=O)n3cccc(C)c3nc21` (configuration not stated), the activation is inactive: -5.48%. Under `CN(C(=O)c1ccc2c(c1)N(Cc1ccc(F)cc1)C(=O)c1ccccc1S2(=O)=O)C1CCCCC1` stands inactive: -17%; under `CCC(CC)C(=O)Nc1nnc(S(=O)(=O)N2c3ccccc3CC2C)s1` (configuration not stated), inactive: 2.55%. Take `COc1ccc(C2=C(C)C(N3CCN(c4ccc(OC)cc4)CC3)=NS2(=O)=O)cc1`: the activation was inactive: -8.67%. For `Fc1cccc(-c2nnn3c2nc(NCc2ccc4c(c2)OCO4)c2ccccc23)c1` the value was inactive: 2.75%; for `Cc1cc(N2CCC(C(=O)Nc3ccccc3Cl)CC2)n2nc(C)c(-c3ccc(Cl)cc3)c2n1`, inactive: 4.33%; for `COc1cccc(-c2nc(CS(=O)(=O)CC(=O)N3CCN(c4ccccc4)CC3)c(C)o2)c1`, inactive: -12.5%. For the compound `Cc1ccc(Cl)cc1N1CCN(C(=O)c2ccc3c(Cl)c4c(nc3c2)CCCC4)CC1`, the activation is inactive: 12.4%. Regarding `O=c1ccc(-c2ccccc2)nn1Cc1c(F)cccc1Cl`, the activation is inactive: 20.9%. As for `CCn1ccc2c(OCC(=O)Nc3ccc(OC)cc3OC)cccc2c1=O`, the activation is inactive: 29.2%.

Take `COc1ccccc1CNC(=O)CCc1c(C)c2cc3c(C)coc3cc2oc1=O`: the activation is inactive: -9.35%. As for `CCN1CCN(CCCNC(=O)Cn2c(-c3cccs3)cc3cc(Cl)ccc32)CC1`, the activation is inactive: 11.4%. For `CCCCOc1ccc(CNC(=O)c2cnc3sc(N4CCCC4)nn3c2=O)cc1` the value was inactive: 7.55%; for `CC1CCCCN1c1cc2c(cc1F)c(=O)c(S(=O)(=O)c1ccccc1)cn2Cc1ccccc1` (configuration not stated), inactive: -10.7%. Consider `O=C(Cn1c(-c2cccs2)cc2cc(F)ccc21)NCCc1ccc(Cl)cc1`, for which the activation is inactive: 16.8%.

Take `O=S(=O)(Nc1ccc(O)c(Sc2nc3ccccc3s2)c1)c1cc(Cl)ccc1Cl`: the activation was inactive: 13.4%. On to `CCn1cc(C(=O)NCCC(C)C)c(=O)c2cc(S(=O)(=O)N(C)C3CCCCC3)ccc21`, for which the activation was inactive: -2.32%.

Take `CCC(=O)N1c2ccccc2CC1C(=O)NCCCN1CCN(c2ccc(OC)cc2)CC1` (configuration not stated): the activation was inactive: 11.2%.

`Cc1nc2c3cccnc3nn2c(C)c1CCC(=O)NCc1ccccc1`: the activation was inactive: -11.4%. Under `CCN(CC)S(=O)(=O)c1ccc2c(c1)nc(CN(C)C(=O)Nc1ccc(C)c(Cl)c1)n2C` stands inactive: -13.8%; under `Cc1ccc(C)c(NC(=O)c2cc(S(=O)(=O)NCc3ccccc3)ccc2F)c1`, inactive: -4.09%; under `COc1ccccc1Nc1nc(C)nc(N)c1S(=O)(=O)c1ccccc1`, inactive: -9.1%.

Consider `CN(C)CCN(Cc1cccs1)c1ccccn1`, for which the activation was inactive: 9.46% and inactive: -10%. With `Cc1ccc(OCC(=O)NCC2(N3CCN(C)CC3)CCCCC2)cc1`, the activation is inactive: -6.14%. For `COc1ccc(Nc2ncc(C(=O)Nc3cccc(Cl)c3)c3ccccc23)cc1` the value was inactive: -53.5%; for `CCc1ccc(NC(=O)C(=O)NCC(c2ccc3c(c2)OCO3)N2CCN(C)CC2)cc1` (configuration not stated), inactive: 5.32%. Take `COc1ccc(-n2nc3c(N4CCC(C(=O)N5CCC(C)CC5)CC4)nnc(C)c3c2C)cc1`: the activation was inactive: -4.77%.

For `COc1ccc(CNC(=O)c2ccc(Cn3c(=O)c4cccn4c4cccnc43)cc2)c(OC)c1`, the activation is inactive: -8.76%. Turning to `Cc1ccc(O)c(NC(=O)c2cc(-c3ccc(F)cc3)no2)c1`, the activation is inactive: -10.1%.

Take `CC(C)CCNC(=O)c1cnc2sc(N3CCCCCC3)nn2c1=O`: the activation is inactive: -9.92%.

As for `COc1ccc(NC(=O)[C@H](Cc2ccccc2)N2Cc3ccccc3C2=O)cc1OC`, the activation was inactive: -2.42%. `Cc1ccc(-n2ncc(C(=O)NCCN3CCN(C)CC3)c2C2CCN(C(=O)OC(C)(C)C)CC2)cc1C`: the activation is inactive: -4.58%.

Regarding `COc1cccc(NC(=O)Cn2c(=O)n(Cc3ccc4c(c3)OCO4)c(=O)c3oc4ccccc4c32)c1`, the activation was inactive: -26.8%. On to `CCOc1ccc(CNC(=O)Cn2c(=O)c3cccn3c3cccnc32)cc1`, for which the activation was inactive: -7.28%. Regarding `COc1ccc2c(c1)c(N1CCCC1=O)c(C(=O)Nc1ccc(OC)c(Cl)c1)n2C`, the activation is inactive: 3.27%. Take `CC(=O)c1cccc(NS(=O)(=O)c2c(C(=O)N3CCCCCC3)c(C)n(C)c2C)c1`: the activation was inactive: -7.96%.

The values are drawn from PubChem BioAssay AID1346428 (National Center for Advancing Translational Sciences (NCATS), 2018).
